Laboratory results published in PubChem BioAssay AID1508623 (National Center for Advancing Translational Sciences (NCATS), 2021).
Screen size: about 48,000 compounds; about 450 (0.94%) were called active. Inconclusive results (about 19%) are left out. Calls follow the shape of the dose curve; as a rule, active = well fitted inhibition curve with a large enough effect; inconclusive = small, poorly fitted or top-dose-only effect; inactive = no such curve, though single readings can be large or run the other way. This is one part of the list.

Experiment: Primary qHTS for Identification of Small Molecule Inhibitors of Huntingtin Promoter Activity; also: nearly all actives have a fitted effect of over 50% in size
Details: HEK293 HTT promoter firefly luciferase reporter (activity 0% = vehicle and -100% = no light), 24 h; series mostly up to 57.5 µM; activity change, negative = inhibition: at the top concentration
Method in brief: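 Firefly luciferase readout (Dual-Glo, 10 min RT) after 24 h, 37 °C compound exposure (final up to 57.5 uM) of HEK293 reporter cells cultured 24 h beforehand; PTC124 at 50 uM final as control inhibitor; activity scaled vehicle 0%, zero RLU -100%.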

Activity change, negative = inhibition, inactive:
COc1ccc(C2CC(=O)Nc3c2c(C)nn3-c2nncc(-c3ccc(C)cc3)n2)c(OC)c1OC (stereo unspecified) -16.9%
Cc1cccc(CCNC(=O)c2sc3nc4n(c(=O)c3c2C)CCCC4)c1 40.1%
Cc1csc2nc(-c3cccc(NC(=O)C(C)C)c3)cn12 4.38%
CCOc1ccc(-c2nc(SCC(=O)Nc3ccc4c(c3)OCO4)c(-c3ccc(F)cc3)[nH]2)cc1 -27.5%
O=C1c2oc3ccccc3c(=O)c2C(c2ccccc2)N1Cc1ccc2c(c1)OCO2 (stereo unspecified) -15.1%
CN1C(=O)c2ccccc2Sc2ccc(NC(=O)c3ccccc3F)cc21 -29.2%
CCOC(=O)c1cccc(NC(=O)[C@@H](c2ccccc2)N2Cc3ccccc3C2=O)c1 -16.9%
Cc1c(-c2nsc(NC(=O)c3ccccc3)n2)nnn1-c1ccc(C(F)(F)F)c(Cl)c1 -20.9%
Cc1cc(C)c(NC(=O)Cc2csc(C)n2)c(Cl)c1 15.3%
CC1COc2c(N3CCN(C)CC3)c(F)cc3c(=O)c(C(=O)O)cn1c23 (stereo unspecified)
CCN1C(=O)c2ccccc2Sc2ccc(C(=O)NCCCN(CC(C)C)CC(C)C)cc21 -4.62%
COC(=O)c1c(-c2cccs2)csc1NC(=O)COc1ccc(C(C)(C)C)cc1 -17.7%
CCOc1ccccc1C1C(C(=O)N2CCCCC2)=C(C)Nc2nc3ccccc3n21 (stereo unspecified) 0.564%
CCOc1ccccc1NC(=O)c1nn(-c2ccc(C)cc2)c(=O)n(C)c1=O -11.8%
Cc1ccc(C(=O)Nc2ccc(-c3cn4cccnc4n3)cc2)cc1C 31.5%
COc1ccccc1CNc1ccc(-c2nc(-c3cccnc3)no2)cc1[N+](=O)[O-] 4.65%
CCc1ccc(NC(=O)c2sc(-n3nc(C)c(Cc4ccc(OC)cc4)c3C)nc2C)cc1 -12.2%
COc1cccc(NC(=O)CN2C(=O)c3cccnc3Oc3ccc(Cl)cc32)c1 -3.04%
COc1ccc(N(C)C(=O)CCn2cnc3onc(-c4ccc(F)cc4)c3c2=O)c(OC)c1 -22.7%
N[C@@H](CSSC[C@H](N)C(=O)O)C(=O)O 9.26% [at 0.739 µM]
COc1ccc(C2CC(=O)N(CC(=O)Nc3cc(C)ccc3C)c3ccccc3S2)cc1 (stereo unspecified) -11.3%
Cc1cc2n(n1)C(c1cc(C(C)(C)C)c(O)cc1O)Nc1ccccc1-2 (stereo unspecified) -28.2%
CCOc1ccc(OCC)c(NC(=O)c2nnn(CC(=O)Nc3ccc(C)cc3C)c2N)c1 -1.21%
COc1ccccc1CNC(=O)C(NS(=O)(=O)c1cccs1)C(C)C (stereo unspecified) -12.5%
Cc1ccc(-c2nc3sc(CCNC(=O)c4ccc(Br)o4)c(C)n3n2)cc1 8.09%
COc1ccc(-c2cc3ccc(O)c(CN4CCOCC4)c3oc2=O)cc1OC 5.3%
CCCCOc1ccc(C(=O)Nc2cccc(-c3nc4cccnc4s3)c2)cc1 -8.88%
CCCCc1ccc(NC(=O)c2cc3c(=O)n4ccccc4nc3s2)cc1 1.28%
CCOc1ccc(NC(=O)CSc2nc3c(oc4ccccc43)c(=O)n2-c2ccccc2C)cc1 -12%
Cc1ccc(NC(=O)NCCc2c(C)nn(C)c2C)cc1Cl 12.5%
COc1ccc(C2=NN(CC(=O)NCCc3ccc(OC)c(OC)c3)C(=O)CC2)cc1 0.955%
CCCCN(CC)CCCNC(=O)CCN1N=C(c2ccc(OC)cc2)CCC1=O -18.3%
COc1cccc(CNC(=O)c2cc3c(s2)-c2ccccc2OC3)c1 -5.44%
COc1ccccc1NC(=O)C1=C(C)Nc2ncnn2C1c1ccccc1C(=O)O (stereo unspecified) -6.21%
COc1ccc(NC(=O)c2cc(C3CC3)nc3c2c(C)nn3-c2ccccc2)cc1 -18.8%
CCOc1ccccc1C(=O)Nc1ccc2nc(N(CC)CC)cc(C)c2c1 -1.24%
Cc1ccc(OCC(=O)Nc2nnc(SCc3cc(=O)c4ccccc4[nH]3)s2)cc1 -12.4%
Cc1cc(N2CCCCC2)nc2ccc(NC(=O)c3cccc(Cl)c3)cc12 -20.4%
CCOc1ccc(CNS(=O)(=O)c2cc3c(cc2C)NC(=O)CO3)cc1OC -14%
CCCS(=O)(=O)N1CC(=O)N(c2ccc(Cl)cc2C)C(C)(C(=O)NC2CCCC2)C1 (stereo unspecified) -8.59%
COc1cc2nc(NC(=O)c3ccc(S(=O)(=O)N4CCOCC4)cc3)sc2cc1OC -10.9%
COc1ccc(NC(=O)CSC2=Nc3ccccc3C3=NC(CCC(=O)NC4CCCCC4)C(=O)N23)cc1 (stereo unspecified) -11.4%
CC(=O)c1cccc(NC(=O)C2CCN(S(=O)(=O)c3ccc4c(c3)oc(=O)n4C)CC2)c1 -12%
N[C@@H](CSCCCO)C(=O)O 0.684% [at 25.2 µM]
O=C(CSCc1ccccc1Cl)N1CCN(c2ccc(Cl)cc2)CC1 -9.58%
COc1c(C)cccc1C(=O)Nc1cccc2ccc(C)nc12 -23.2%
CCOC(=O)C1CCN(C(=O)c2ccc(-n3ccc4ccccc43)s2)CC1 42%
O=C1CC[C@H](C(=O)N2CCCCC2)N1 -3.72%
COc1ccc(Cn2ccn(Cc3cccc(OC)c3)c(=O)c2=O)cc1 -28.6%
Cc1ccc(C(=O)c2cn(CC(=O)Nc3ccc(C)cc3Cl)c3nc(C)ccc3c2=O)cc1 0.632%
CCOc1cc(CNC(=O)c2ccc3c(c2)NC(=O)C2CCCCN32)cc(OCC)c1OCC (stereo unspecified) -9.21%
Cc1cn2c(=O)cc(COC(=O)c3ccc(NC(=O)COc4ccccc4F)cc3)nc2s1 -10.1%
CCOc1ccccc1OCCCn1c(-c2ccc(Cl)cc2)nc2ccccc2c1=O -16.1%
Cc1cc(C)cc(-n2c(-c3ccccc3)c(C)n3c4c(=O)n(C)c(=O)n(C)c4nc23)c1 -7.04%
COc1cc(C(=O)NCC(c2cccs2)S(=O)(=O)c2cccs2)cc(OC)c1OC (stereo unspecified) -11.1%
CCOc1ccc(CCNC(=O)Cn2nc(CC)n3c(cc4ccccc43)c2=O)cc1 6.5%
CCOC(=O)c1[nH]c(C)c(CCC(=O)Nc2cc(C)ccc2OC)c1C -12.5%
Cc1ccccc1CN1CCC(CNC(=O)c2c(C)oc3ncnc(N4CCCCC4)c23)CC1 0%
CCC(Sc1nc(-c2ccccc2F)nc2c1Cc1c(CO)cnc(C)c1O2)C(=O)Nc1cc(C)ccc1C (stereo unspecified) -16.8%
CCOc1ccc(CCNC(=O)C2=C(C)C(=O)OC23CCCCC3)cc1 -13.7%
Fc1ccc(-c2noc3ncnc(NCc4ccc(Cl)cc4)c23)cc1 -25.7%
O=C(CCn1c(=O)c2cccn2c2cccnc21)NCc1ccc(F)cc1 0.648%
COc1cc(C2CC(=O)Oc3c2c(=O)n(C)c2ccccc32)ccc1O (stereo unspecified) -11.3%
CCOC(=O)C1CCN(S(=O)(=O)c2ccc3c(c2)N(C)C(=O)CC(=O)N3C)CC1 -21%
COc1ccc(C(=O)NC2(C(F)(F)F)C(=O)Nc3c2c(=O)[nH]c(=O)n3CCc2ccc(OC)c(OC)c2)cc1 (stereo unspecified) -5.06%
COc1ccc(-c2cc(C(C)=O)c(C)n2CCC(=O)Nc2cc(Cl)ccc2C)cc1 -41.6%
O=C(COc1ccccc1)Nc1ccc2nc(SCCOc3ccccc3)sc2c1 3.97%
CCOC(=O)c1c(C)[nH]c(C)c1S(=O)(=O)N(C)CC(=O)Nc1ccc(C)cc1C -11%
Cc1ccc(NC(=O)Cn2c(=O)n(CC3CCCO3)c(=O)c3ccccc32)cc1 (stereo unspecified) -13.5%
Cc1cc(C)c2oc(-c3cccc(NC(=O)COc4ccc([N+](=O)[O-])cc4)c3)nc2c1 -26.1%
Cc1ccc(Cl)cc1N1CCN(C(=O)c2ccc(CS(=O)(=O)c3ccccc3C)o2)CC1 -32.5%
Cn1nc(C(=O)Nc2ccc(F)c(Cl)c2)c2c1-c1ccccc1S(=O)(=O)C2 -16.9%
CC(=O)CSc1nnc2[nH]c(=O)cc(N)n12 -9.17%
COc1cc(C2NC(=O)c3c(sc4c3CCN(C)C4)N2)cc(OC)c1OC (stereo unspecified) 2.94%
CCOc1cc2[nH]c(=O)n(Cc3ccc(C(=O)N4CCN(c5cccc(Cl)c5)CC4)cc3)c(=O)c2cc1OCC -20.2%
CCc1ccc(CNC(=O)C2CCN(c3nn4cc(-c5ccc(F)cc5)nc4s3)CC2)cc1 -4.65%
COc1ccc(Br)cc1CN1C(=O)c2ccccc2C1C(=O)NC1CCCCCC1 (stereo unspecified) -3.63%
O=C(Cn1c(=O)nc(-c2ccccc2)c2cc(Cl)ccc21)N1CCN(c2ccc(F)cc2)CC1 -3.61%
CCOC(=O)c1c(C)c(-c2ccccc2)n(CC(=O)NC2CCCCC2)c1C -2.71%
COc1ccc(Cl)cc1NC(=O)c1nn(-c2ccc(C)cc2)c(=O)n(C)c1=O 1.23%
Cc1cccc(CNC(=O)CS(=O)(=O)c2cccc3nsnc23)c1 -6.4%
COc1cc(NC(=O)Cn2cnc(S(=O)(=O)N3CCCC3)c2)cc(OC)c1OC -4.08%
COC(=O)C1=C(C)NC(C)=C(C(=O)OC(C)C)C1c1cccc2nonc12 (stereo unspecified) -3.41%
CCN(C(=O)c1cnc2ccc(C)cn2c1=O)c1ccccc1 -7.52%
CCOC(=O)C1CCN(C(c2cccc(F)c2)c2c(O)cc(C)n(CCOC)c2=O)CC1 (stereo unspecified) -3.04%
O=C1OC(OC(=O)c2cccnc2Nc2cccc(C(F)(F)F)c2)c2ccccc21 (stereo unspecified) -4.73%
Clc1ccc(-c2noc3ncnc(NCCc4ccccc4)c23)cc1 -30.2%
CCc1ccc(NC(=O)C2CCN(c3nn4c(=O)cc(C)nc4s3)CC2)cc1 -14.1%
N#C[C@H]1C[C@H]2C[C@@H]2N1C(=O)[C@@H](N)C12CC3CC(CC(O)(C3)C1)C2 -9.55%
O=C(Nc1ccc2c(c1)CCCN2C(=O)c1cccs1)c1ccccc1Cl -28%
COc1cc(OC)c(Nc2nc3ccc(C(=O)c4ccccc4)cc3n3c(C)nnc23)cc1Cl -7.84%
O=c1nc2n(-c3ccccc3F)c3ccccc3cc-2c(=O)[nH]1 -18.1%
O=C(Nc1ccc(OC(F)(F)F)cc1)c1cc2ccccn2n1 -24.8%
CCOC(=O)c1c(NC(=O)c2ccc(S(=O)(=O)N(CC(C)C)CC(C)C)cc2)sc2c1CCN(C(=O)OCC)C2 -5.91%
CCC(=O)N(CCC(c1ccccc1)c1ccc2c(c1)OCO2)Cc1ccc(OC(C)C)cc1 (stereo unspecified) -28.5%
COc1ccc(NC(=O)CSc2nnc(-c3nonc3NC(C)=O)n2-c2ccccc2)cc1 -15.3%
